In all, about 4,500 sequences were measured (“median log2 fold change of GCK-ALFA target abundance (FLAG IP / Myc IP barcode read proportion)”: median about 0.078, lowest 2% from about -0.6 on). This is one part of the list.
B1: GBRAP_80_6795 (protein)
chain: AEERLKKALEEIEKLDKELAKKVKEIVEIAREMGVSTEDLADFAEAIAELLKLDKEKARELVEELKEELEELKKEGNKAEAEAAVRVYAGEALLEVEELE
B2: GBRAP_125_3140 (protein)
chain: MKEAEIELAEALAKAMGFSEEEIKELKKLAEASDPRQTIIAILLAEGFEELAELAEKVLPKLTEEELKELTELALSMKNKSKEELEKALLEKLKELEKKL
B3: GBRAP_186_5385 (protein)
chain: EEEAEKELDKKIEEYEKKGYRVIVSYIEGKSLEEIKKSIEREADAVAALAKETGEKWALIVYVKTKKEDIEEIKEYADKINKEYLAKTGVVVDVVVANSD
B4: GBRAP_157_3954 (protein)
chain: EILYETFVVTTEDTLEEIRARAREIAERIKAAGVPAVLVIVVSKEDEELAESIADYIEAVLEYETGMDIEVISEILPPTATREEAEAKAEELLEEAKKKR
B5: GBRAP_52_6213 (protein)
chain: MEEEIRKAAEEIADALIAGDEEKLIKLVKEAKEKFSLEELEEIAAETGRILAERLKGDEERIVELIDRLEEAALEAGLSEDDALALEGAAEAAAIKTLLA
B6: GBRAP_78_6629 (protein)
chain: EVEELIDKALEELNKAAKLTKKLPEEDANELLDLLVEAASHLLEAEEKGGDLKELEEAKKHLEKAIKKLKELNDERAEPLLKEVEKALKLVEKAIKLLKK
B7: GBRAP_128_3579 (protein)
chain: SVEEVRAEVRALLEAMKTADAAEQKAIATEIATRFTTLTPEERRAAAETIEELLPELSAEQLDILADALRAARPTADPEAANLLADVEVAALNEALEKEE
B8: GBRAP_150_3920 (protein)
chain: DLEELLLIAETLIDILEAILDGEYELLPHALKLAKAALEEAKEVSPELKELAEKLVKLLEEALKLKKEGGKKEEIKKKIEEALKVAREIAKLLKELIKKK
B9: GBRAP_150_3918 (protein)
chain: DLETLLTIVDTLIDILEAILDGEFDLLPHALKLAKIAVDEAKDIDEELLKLAEEMLKEIEEAKKLLEEGGPKEEILKKVKEALKIAKELEKKIKELIKEK
B10: GBRAP_139_3729 (protein)
chain: NEDEEAVEEVVRLTRESLETGGEKVREIAKLLNSLDEETREKAAEAMAEVAEEESFDKVEAFFDALIETLLTEFKDEDLADIVEAAANRALARVAVREEA
B11: GBRAP_14_3865 (protein)
chain: MEELIKAVKNTAEETKAFAAELAPEHAAEIQAKIDELAKEIIEKIKKENINKEELAKLIDEAADALGAYMAEKGYLTPEEIAAFRAHLLSTALLELEKIE
B12: GBRAP_14_3826 (protein)
chain: MEEIEKVLEEMAEELKELFKEISPEKAEELAEAVEEEIEEALEEIKETGDAEEAMEEAEEELVAEVKEILADEPEEVQATAVAAVRIETAEAEEEIDELL
B13: GBRAP_160_4181 (protein)
chain: SEKLEKAEEEIREIFAEAIEMMKGETAENRANIASVAFGEILLLLEELGLLTDELGAEIEEIEDEVVSTILANPDLTDEELAALLREAEERILEALRASS
B14: GBRAP_160_4518 (protein)
chain: MEDLERMKKLIDEAAERIKESIDEESVEDAIVVAAVEYGEVIMEAVEDESFSDEAEDAIAEIADELVADLKANKNASKEELKKIVDEHAEKLKKELEKLS
B15: GBRAP_39_5664 (protein)
chain: EEDEENELLFEYYLAKAEGYRIKEGISDEELIERGKELLKAIAKEHPEIKELVEELLKEVDKGDEDVGLAAAGIALDYLEGLPIEEIKEHLEKLLKYVKK
B16: GBRAP_14_3845 (protein)
chain: SEELRKKLLEAVEKTIEELRKIAPPEYAPRVEKFGERLRKAVEEVLKLGNLEEASKRLIEVAEETVEELFADLPEEERAALRAEAVNTLALEFEKIEEEL
B17: GBRAP_83_6870 (protein)
chain: AEKITVAAPGDRVAEATDAVIDLTKNEGYDVELEIIARPEDREKVLAGARRLAEAGVATPITVYGVGMTAEEAEALEAELRAIFAAAGVDATVEVILEEP
B18: GBRAP_35_5616 (protein)
chain: DIDKEVAESLVDLIEALTEAVPELPVDKLVAITNSLVKAVESFVEKHKDDAENLEKLAKALKKLLEAIEKYHGDDPEARKAAEKVKKAAKKAEEAAKKAK
B19: GBRAP_11_2795 (protein)
chain: KKEKLKKLAEVLRKAAEALERLIAAGPEDKEGWEEARKLLEEAEKLAEEAGDEDTAELLKFALEDLEKAQKDPANAQQHLENALATVRVAEGLTLLEIEE
B20: GBRAP_95_7081 (protein)
chain: EEDLEEVVVLADTAIDLYDAGLKEQAARAMRAALDAAEELGWKVADPELFVRLLERFAELALEHFTLEEVERALEAAEAAGAPEELRERLRAAAAALRAR
B21: GBRAP_160_4051 (protein)
chain: EKSKEELLKMVEEARKEVLEVLDEEGAEAALVMFEGLSGEIIMEAAEDPNASDELVDELAKIRDEGVKRLRENRNASKEELKKIIEEAAEEMKEAIKKHY
B22: GBRAP_11_2819 (protein)
chain: MDEVVKELIEVLKKLAEAADKYLKEDVGDEELLKKIEELAKKALELAKKLNDPAVIREAQAILDTVEEAKKDPANREQYVANARAGARTLLANLEEEAEE
B23: GBRAP_117_2572 (protein)
chain: MEKLKKAEEEVRKFVKRVAERLKEMKTLSPEEQAKALAELEKETYEFVKKMIEEVGKDKAIELFDEAIAELDAELYFQVSLLFENAVQRIEEEEKKKEEE
B24: GBRAP_52_6281 (protein)
chain: SEEEVEEVAEEIIRLVEEGKLEEALELARRAVEEFSLEEVLRLGERLIEAIKELPPEKVDLMLEVVDELADALEEKFGEESLADVIEARAAAAAYERLQA
B25: GBRAP_11_2893 (protein)
chain: KKEKLEKLAEKAEEVIKLLKELQEKGAENEELRKKLEEKAKEALELAKESLDESDVELVKYLIELIKEAQKNPETAQQYLDEALATARVLLGQVLLEIEE
B26: GBRAP_74_6507 (protein)
chain: SQELIDALVAAVEAGDWATAIALLEEIFATEDKETRDEALAALKEALEKNKDKFTAEQAEALLDVVIANADKASDEAVDDLSSLLAKIHAEKLAAEAAAA
B27: GBRAP_160_4498 (protein)
chain: SEKLEKAFKELDRIAELTIEAAKEVSPEDKPLIIDAYMGDMIVYLKEEYGISEETEDKALEEADKKVAELKAIPNPTPEQIEAIVNDFTEFLKELLKEES
B28: GBRAP_128_3349 (protein)
chain: LNEEKLEKVRKMAEEMVKADVEEAYKLTKELAEFIGTLNDEEAEAAAEILIEALPKFTVEQLDAIADALREMRPKMDPFKANLLAEVQVEALNEAEELEE
B29: GBRAP_125_3068 (protein)
chain: EMEETLENLAELAKALGFSESDIEEAVEIARKSSIKNTLIAIMMAEGAEEVADLVEKITEEEAKEVLKELVEELKKNPNFTPEEVIKKLKELLEKKIEER

What follows are binders tested against GABARAP, O95166 (assay: median log2 fold change of GCK-ALFA target abundance (FLAG IP / Myc IP barcode read proportion) (log2 ratio); each designed protein is fused to an ALFA-tag nanobody in HEK293 cells to bring the named protein to FLAG-tagged glucokinase (GCK); Myc marks an untargeted standard; higher = target protein stabilised (more abundant)). Conditions: target protein: 3xFLAG-MCP-GCK-ALFA reporter; HEK293 landing pad (RPLP).
GABARAP, O95166, sequence (O95166 whole entry, the tested form may be a part): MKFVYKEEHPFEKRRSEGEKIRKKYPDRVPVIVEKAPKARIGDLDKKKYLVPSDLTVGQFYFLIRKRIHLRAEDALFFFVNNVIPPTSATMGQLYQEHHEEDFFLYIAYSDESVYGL
Method in brief: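 HEK293 landing-pad cells received a recombined binder library fused to the ALFA nanobody and were induced with 2 μg mL^−1 doxycycline, then transfected with a plasmid encoding a FLAG-tagged target and a Myc-tagged standard. Lysates were collected after 48 h for anti-FLAG and anti-Myc immunoprecipitation, and the circular RNA barcodes were reverse transcribed, amplified and sequenced. Target abundance for each binder is the median log2 ratio of FLAG to Myc barcode read proportions. Barcodes had to reach a proportion of at least 10^−7 in both replicates, each binder needed at least 3 barcodes per replicate, a pseudocount of 10^−6 was applied, and the two replicates were pooled.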

| Binder | median log2 fold change |
| --- | --- |
| B1 | 0.0713 |
| B2 | 0.323 |
| B3 | 0.119 |
| B4 | -0.0866 |
| B5 | 0.0147 |
| B6 | -0.00372 |
| B7 | 0.177 |
| B8 | 0.0639 |
| B9 | 0.0668 |
| B10 | 0.134 |
| B11 | 0.279 |
| B12 | 0.296 |
| B13 | -0.259 |
| B14 | -0.272 |
| B15 | 0.132 |
| B16 | 0.354 |
| B17 | 0.114 |
| B18 | 0.12 |
| B19 | 0.102 |
| B20 | 0.285 |
| B21 | 0.192 |
| B22 | 0.324 |
| B23 | 0.245 |
| B24 | -0.4 |
| B25 | -0.102 |
| B26 | -0.00895 |
| B27 | 0.16 |
| B28 | 0.0463 |
| B29 | -0.064 |
